Experimental findings from PubChem BioAssay AID1240 (Sanford-Burnham Center for Chemical Genomics, 2008) are described below.

Hit rate of the full screen: of about 50,000 compounds, about 800 (1.6%) showed an effect of 50% or more. The list shows a part of the results.

The assay deals with Bcl-2-like protein 10 (Homo sapiens) (UniProt Q9HD36). The assay is described as follows: TR3 peptide-Bcl-B binding displacers, biochemical primary FP assay, phenotype converters (AID 1240).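 Also: 0% = Bcl-B with tracer peptide and DMSO and 100% = tracer peptide lacking Bcl-B.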 The settings on record: GST-Bcl-B / FITC-TR3 peptide fluorescence polarization; stronger effect = higher value; compound at 3.75 mg/L.
Sequence of UniProt Q9HD36 (Q9HD36 whole entry, looked up): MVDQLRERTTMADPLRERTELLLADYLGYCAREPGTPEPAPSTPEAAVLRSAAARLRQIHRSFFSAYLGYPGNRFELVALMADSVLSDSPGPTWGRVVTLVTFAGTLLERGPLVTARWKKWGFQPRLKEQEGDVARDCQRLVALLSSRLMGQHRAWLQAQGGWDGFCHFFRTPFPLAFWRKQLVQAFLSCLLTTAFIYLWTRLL
Regarding `NC(=O)C1CCN(C(=O)Nc2ccc(Cl)c(Cl)c2)CC1`, the displacement is -2%.
As to `O=C(O)c1nn2c(C(F)(F)F)c3c(nc2c1Cl)-c1ccccc1CC3`, the displacement came out at 1.1%.
On to `C/C(=N/NC(=O)c1ccc(CO)nc1)c1ccc(Br)cc1`, for which the displacement was found to be 49.1%.
Next, `O=c1oc2cc([N+](=O)[O-])ccc2nc1/C=C(O)/C=C\c1ccccc1`: -4.6%.
Next, `COc1ccc(C2C(C(C)=O)=C(O)C(=O)N2CCN(C)C)cc1` (stereo not drawn): -5.1%; `Cc1c(C(=O)NCCC2=CCCCC2)cccc1[N+](=O)[O-]`: -2.8%; `CSc1ccc(Cl)c(C(=O)Nc2c(C)n(C)n(-c3ccccc3)c2=O)c1`: -10%.
Next, `CC1=[N+](CCO)c2ccccc2C1(C)C`: 16.8%.
Consider `N#C/C(=C\c1ccc(OCc2ccccc2)cc1)c1nc(-c2ccc(Br)cc2)cs1`, for which the displacement is -4.6%.
The value for `O=C(N/N=C/c1cc([N+](=O)[O-])ccc1Cl)Nc1ccccc1` was -9.2%; that for `O=c1/c(=C/c2ccc(Cl)cc2Cl)sc2nc(-c3ccccc3)nn12` was -9.6%.
`Cc1ccc(NC(=O)CN(c2ccc(C)c(Cl)c2)S(C)(=O)=O)c(C)c1`: the displacement is -5.6%.
Regarding `Cc1ccccc1C(=O)Nc1nnc(-c2ccco2)s1`, the displacement was -1.6%.
The value for `O=C(CC1Sc2ccccc2NC1=O)Nc1ccc(I)cc1` (stereo not drawn) was -1.6%.
Next, `CCn1c2c(c3cc(F)ccc31)CCCC2=O`: 1.8%; `CCOC(=O)CCCSc1nnc(CCCN2C(=O)c3cccc4cccc(c34)C2=O)n1-c1ccccc1`: 0.5%.
`Cc1ccc(/C=C/C(=O)N2CCN(c3ccc([N+](=O)[O-])cc3)CC2)o1`: the displacement was 19.4%.
As to `Cc1cccc(NC(=O)c2ccc([N+](=O)[O-])cc2)c1`, the displacement came to 17.9%.
For the molecule `Oc1ccccc1/C=N/Nc1nc2ccccc2s1`, the displacement was 0.6%.
The value for `CC(C)c1ccccc1NC(=O)Cc1ccc(Br)cc1` was 1.9%.
Next, `COC(=O)c1ccc(N=Cc2c(O)n(C)c(=O)[nH]c2=O)cc1`: 5.1%; `CN1CCN(C(=O)CCN2C(=O)c3cccc4cccc(c34)C2=O)CC1`: 18.2%.
Next, `NC1=NC(=O)/C(=C/c2ccc(OC(=O)c3ccccc3Br)cc2)S1`: 8.1%.
Consider `CC(=O)N1CCN(c2ccc(NC(=O)c3cccc(Cl)c3)cc2)CC1`, for which the displacement worked out at 16.4%.
The value for `O=C(Nc1cccc(NC(=S)NC(=O)c2ccco2)c1)c1cccc(Cl)c1` was 1.4%; that for `Cc1cc(Oc2ccc(F)c(F)c2)c(F)cc1[N+](=O)[O-]` was -1.7%.
The value for `COc1ccc(CC(=O)Nc2ccc(S(=O)(=O)Nc3nccs3)cc2)cc1` was 5.1%.
The value for `COc1ccc(Nc2ccc(OC)cc2)cc1` was 14.1%.
As for `O=C(O)Cn1nnc(-c2ccccc2Cl)n1`, the displacement is 6.6%.
For `Cc1[nH]nc(-c2ccccc2)c1Sc1ccc(Cl)cc1`, the displacement was -9.7%.
Next, `O=C(COc1cccc2ccccc12)NNC(=O)Cc1ccc(Cl)cc1`: -12.3%.
The value for `CCN(CC)c1ccc(NC(=O)/C=C\c2ccccc2Cl)cc1` was 14.7%.
In the case of `CCOC(=O)C(=CNc1ncccc1C)C(=O)OCC`, the displacement is -3.1%.
The value for `Clc1ccccc1-c1nc(N2CCOCC2)c2ccccc2n1` was 2.1%; that for `Cc1cc(C)n(-c2cc(C)c3cccc([N+](=O)[O-])c3n2)n1` was 3.3%.
As for `O=C(COc1ccc([N+](=O)[O-])cc1)Nc1ccccn1`, the displacement was -10.4%.
Next, `C(=C\CSc1cccc2cccnc12)/CSc1cccc2cccnc12`: -3.3%; `CCc1ccc(C(=O)/C=C/c2cccc([N+](=O)[O-])c2)cc1`: 1%; `CC(=O)N1CCN(c2ccc(NC(=O)c3ccco3)cc2)CC1`: 7.8%.
Next, `COc1ccc(/C=C/C(=O)n2nc(C)cc2C)cc1`: 10.9%; `Ic1ccc(OCCCn2ccnc2)cc1`: -0.7%.
The value for `O=C(NCC12CC3CC(CC(C3)C1)C2)N1CCOCC1` was -5.5%; that for `Cc1occc1C(=O)Nc1nccs1` was 6.2%.
`O=C1C=C(c2cccc([N+](=O)[O-])c2)C(=O)N1c1ccc(Cl)c(Cl)c1`: the displacement is 22.1%.
The value for `CCN(CC)C(=O)c1sc(NC(=O)/C=C/c2cccs2)c(C(=O)OC(C)C)c1C` was -11%; that for `Cc1ccc(-c2csc(NC(=O)Nc3cccc(Cl)c3)n2)cc1` was -8.4%.
The value for `O=C(Nc1ccc(N2CCOCC2)cc1)c1ccc(Br)o1` was 17.4%; that for `CC(C)(C)OC(=O)COc1cc2oc(=O)c3c(c2cc1Cl)CCC3` was 10.1%.
The value for `CCOC(=O)C1=C(O)/C(=C\c2ccc(OC)cc2)N=C1/C=C/N(C)C` was 5%.
For `CSc1nc(C)cc(-n2cc(F)c(=O)[nH]c2=O)n1`, the displacement amounted to 2.7%.
In the case of `CC(C)=CC1C(C(=O)Nc2ccc(C)cn2)C1(C)C` (stereo not drawn), the displacement is -11.9%.
The value for `O=C1CC(O)(C(F)F)Oc2ccccc21` (stereo not drawn) was -1.2%.
Next, `Cc1cc(C)n(C(=O)c2cc(-c3ccccc3)nc3ccccc23)n1`: 4.4%; `O=C(O)c1cc(S(=O)(=O)NCc2ccccc2)ccc1Br`: 27.5%; `CC(C)(C)C1CCc2nc3ccccc3c(C(=O)O)c2C1` (stereo not drawn): -1.3%.
Next, `O=C1/C(=C/c2ccccc2[N+](=O)[O-])SC(=S)N1c1cccc(C(F)(F)F)c1`: 12.6%; `Cc1ccc2c(c1)c1c3n2CCN(C(=O)c2ccccc2Cl)C3CCC1` (stereo not drawn): 25%.
Take `Cc1ccc(C(=O)NCCCn2ccnc2)cc1[N+](=O)[O-]`: the displacement was -4.7%.
The value for `Cc1nc2ccccn2c1C(=O)N/N=C/c1c(O)ccc2ccccc12` was -14.3%; that for `CC1(C)Cc2ccccc2/C(=C(\Cc2ccccc2)C(N)=O)N1` was -6%; that for `CCOC(=O)c1sc(NC(=O)COc2ccc(CC)cc2)c(C(=O)OCC)c1C` was 3.3%.
Next, `COc1ccccc1N(CC(=O)Nc1ccccc1Cl)S(=O)(=O)c1ccccc1`: 6.8%.
Next, `CCc1ccccc1NC(=O)CN(c1ccc(F)cc1)S(=O)(=O)c1ccccc1`: 1%.
Take `O=C(Nc1ccc(Nc2ccccc2)cc1)c1cccc([N+](=O)[O-])c1`: the displacement turned out to be 1.8%.
Next, `CCCCN1C(=O)/C(=C\c2ccc(Cl)cc2Cl)SC1=S`: 1.9%.
The value for `CCNC(=O)c1cc2c(C)nn(-c3ccccc3)c2s1` was 8.2%.
The value for `CCOC(=O)C1CCC(=O)C=C1N1CCOCC1` (stereo not drawn) was 4.9%.
As to `Clc1cc2c(cc1CSc1nnnn1-c1ccccc1)OCO2`, the displacement is -1.9%.
Next, `CCOC(=O)c1c(C)nc(C(Cl)(Cl)Cl)nc1N`: -10.3%.
Next, `COc1ccc(NC(=O)C2CC(=O)N(c3ccc(C)cc3)C2)cc1` (stereo not drawn): 10%; `COC(=O)c1cc2nc(-c3ccc(Br)cc3)cc(C(F)(F)F)n2n1`: 5.7%.
Next, `O=C(O)CCCCCN1C(=O)C(=O)/C(=C(/O)c2ccccc2)C1c1ccc([N+](=O)[O-])cc1` (stereo not drawn): -3.9%; `Cn1c(COc2ccc3ccccc3c2)nc2ccccc21`: -17.2%.
